# In all, about 420,000 compounds went through this assay and about 64,000 (15%) were called active. The inconclusive results got no clear call from the source; some entries with a clear call stand among them for comparison. Calls come from the whole dose curve; as a rule, active = well fitted inhibition curve with a large enough effect; inconclusive = small, poorly fitted or top-dose-only effect; inactive = flat fitted curve, though single readings scatter. No potency is given beside an inconclusive call; the fits are too rough.
# Assay: qHTS for Inhibitors of human tyrosyl-DNA phosphodiesterase 1 (TDP1): qHTS in cells in absence of CPT; note: nearly all actives have a fitted effect of over 55% in size
# Settings: DT40 Tdp1-/- hTDP1 cells, no CPT, ATP luminescence, 48 h; activity change, negative = growth inhibition: at 46.2 µM (top of the series) unless noted
# Method in brief: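 No-CPT arm: Tdp1-/-;hTDP1 DT40 cells (400/well) plus compounds, incubated ≥48 hr at 37 °C. Readout CellTiter-Glo luminescence.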
# % is set by controls: 0 for no effect and ±100 for the full control effect; potency is the fitted concentration of half-maximal effect; tags give direction and shape of the fitted curve.
Structure (SMILES),Potency,"activity change, negative = growth inhibition"
Cc1ccc(N(Cc2ccccc2)C(=O)c2cccc(S(=O)(=O)N3CCN(C)CC3)c2)cc1,"inconclusive [inhibitor, single point]",–
CCn1c(SCC(=O)Nc2cc(C)ccc2C)nc2c(c1=O)SC(C)C2 (configuration not stated),–,inactive: -24.4%
COc1cc2nc(CN3CCN(S(=O)(=O)c4ccccc4C(F)(F)F)CC3)[nH]c(=O)c2cc1OC,"inconclusive [inhibitor, partial curve, poor fit]",–
Cc1cc(N(C)C)ccc1/C=C/c1ccnc2ccccc12,active: 7.94 µM,–
CCOC(=O)c1c(NC(=O)c2ccc(S(=O)(=O)N3CCOCC3)cc2)sc2c1CC(C)(C)NC2(C)C,"inconclusive [inhibitor, single point]",–
O=S(=O)(c1cccc2nonc12)N1CCN(c2cccc(Cl)c2)CC1,"inconclusive [inhibitor, partial curve, poor fit]",–
CN(CC(=O)Nc1ccc(C#N)cc1)Cc1ccc(Cl)cc1Cl,"inconclusive [inhibitor, single point]",–
CC(C)CN(C(=O)COC(=O)Cc1c[nH]c2ccccc12)c1c(N)n(Cc2ccccc2)c(=O)[nH]c1=O,–,inactive: -0.0769%
CCOC(=O)C1=NNC(C(=O)c2ccc(C)cc2)C1c1ccc(OC)cc1 (configuration not stated),"inconclusive [inhibitor, single point]",–
C/C(Cl)=C/Cn1c(NCCN(C)C)nc2c1c(=O)n(C)c(=O)n2C,–,inactive: -3.91%
CCC1CCCCN1CCCNC(=O)CC1Oc2ccccc2NC1=O (configuration not stated),"inconclusive [inhibitor, full curve]",–
Cc1cc(C)n(-c2ccnc3cc(Cl)ccc23)n1,–,inactive: 3.79%
NC(=O)c1nnn(Cc2cc(Cl)c(C(=O)c3ccc(Cl)cc3)c(Cl)c2)c1N,active: 16.4 µM,–
Cc1nn(C(=O)c2ccc(Cl)cc2)c(C)c1Sc1ccc(Cl)cc1,"inconclusive [inhibitor, single point]",–
CC(C)Cc1ccc(S(=O)(=O)N2CCCC2)cc1,"inconclusive [inhibitor, single point]",–
c1ccc(C2OC3c4cccc5cccc(c45)C3N2c2ccccc2)cc1 (configuration not stated),–,inactive: -12.3%
C[C@@H](NCCCn1ccc(NC(=O)OCc2ccccc2)nc1=O)c1cccc2ccccc12,active: 16.4 µM,–
CNc1ccc(/C=C2\C=Cc3ccccc32)cc1Cl,"inconclusive [inhibitor, partial curve]",–
Cn1c(N/N=C2\CCCc3ccccc32)nc2c1c(=O)n(Cc1ccc(F)cc1)c(=O)n2C,"inconclusive [inhibitor, single point]",–
CC(=O)N1CCc2c(sc(NC(=O)c3ccc4c(c3)OCCO4)c2C#N)C1,active: 3.66 µM,–
O=C(NCCO)c1ccccc1O,–,inactive: -4.29%
COc1ccccc1NS(=O)(=O)c1ccc(C(=O)N2CCCC(C)C2)cc1 (configuration not stated),"inconclusive [inhibitor, single point]",–
Cc1ccc(C(=O)c2oc3nc(C)cc(C)c3c2N)cc1,"inconclusive [inhibitor, single point]",–
C[C@H](C[C@H](O)[C@H]1OC1(C)C)C1=C2C[C@H](O)C3[C@@]4(C)CCC(=O)C(C)(C)C4CC[C@]3(C)[C@@]2(C)CC1 (some centres not stated),active: 14.6 µM,–

Structure (SMILES),Potency,"activity change, negative = growth inhibition"
CC12CCC(=O)N1C(C(=O)NCCN1C(=O)S/C(=C\c3ccccc3Cl)C1=O)CS2 (configuration not stated),"inconclusive [inhibitor, single point]",–
Cc1nc(-c2nc(-c3c(C(=O)NNC(=O)Nc4cccc(Cl)c4)noc3C)cs2)cs1,"inconclusive [inhibitor, single point]",–
Cc1ccccc1C(=O)OCC(=O)N(C)c1c(N)n(Cc2ccccc2)c(=O)[nH]c1=O,–,inactive: 0.946%
CN(C)C(CNC(=O)c1cccc(S(=O)(=O)N2CCN(c3ccccc3)CC2)c1)c1ccccc1 (configuration not stated),"inconclusive [inhibitor, single point]",–
O=S(=O)(NCCS(=O)(=O)N1CCN(c2ccc(F)cc2)CC1)c1ccccc1,"inconclusive [inhibitor, single point]",–
CCOc1ccc2nc(Cl)c(C3CC(c4ccco4)=NN3S(C)(=O)=O)cc2c1 (configuration not stated),–,inactive: -27.8%
COc1ccc(CN(Cc2cc3ccc(C)cc3[nH]c2=O)Cc2nnnn2C2CCCC2)cc1,active: 18.4 µM,–
Cc1nc2c3cc(F)ccc3n(Cc3ccccc3)c2s1,"inconclusive [inhibitor, single point]",–
CCN(CC)C(=O)CSc1ncnc2c1cnn2Cc1ccccc1,active: 11.6 µM,–
COc1ccc(Cl)cc1-c1cc(C(=O)Nc2ccc(C(C)(C)C)cc2)[nH]n1,active: 14.6 µM,–
CCc1noc(C)c1C(=O)N1CCCSC1=Nc1ccccc1C(C)C,"inconclusive [inhibitor, single point]",–
COc1cc(-c2nc(C)c(C(C)=O)n2O)ccc1OCC(=O)Nc1ccc(Cl)cc1,"inconclusive [inhibitor, single point]",–
COc1ccccc1/C=C1\CCC(C2CCCC2)C1=O (configuration not stated),"inconclusive [inhibitor, single point]",–
C[C@H]1CN(S(=O)(=O)C(C)(C)C)[C@H](CCO)/C1=C\c1ccccc1,–,inactive: -11%
CCN(C(=O)COC(=O)c1cc(-c2ccc(C)o2)nc2ccccc12)C1CCS(=O)(=O)C1 (configuration not stated),"inconclusive [inhibitor, single point]",–
O=C(c1cccs1)N1CCCC(c2nc3c(nnn3Cc3c(Cl)cccc3Cl)c(=O)[nH]2)C1 (configuration not stated),"inconclusive [inhibitor, single point]",–
COc1ccc(C2CC(c3ccc(Cl)cc3Cl)Nc3nc(N)nn32)cc1OC (configuration not stated),"inconclusive [inhibitor, partial curve, poor fit]",–
COc1cccc(NC(=O)c2sc3nc(N4CCOCC4)c4c(c3c2N)CC(C)(C)OC4)c1,active: 6.51 µM,–
Cc1ccc(CNC(=O)CCCn2c(=O)c3ccccc3n(CC(=O)C(C)(C)C)c2=O)cc1,"inconclusive [inhibitor, single point]",–
OCCNC1=NCCN1,–,inactive: -5.47%
NC(=O)c1ccccc1NCC(=O)c1ccc(Cl)cc1,–,inconclusive: -38.3% [inhibitor]
CC1(C)ON=C(c2cccc(F)c2)NC1=O,–,inactive: 6.69%
CCC1=Nc2cc(C(=O)NCc3ccco3)ccc2Sc2ccc(C)cc21,active: 1.3 µM,–
Cc1cc(O)c(C(C[N+](=O)[O-])c2ccc(Cl)cc2Cl)c(=O)o1 (configuration not stated),active: 16.4 µM,–

Structure (SMILES),Potency,"activity change, negative = growth inhibition"
CC(C)(C)c1ccc(N2C(=N)SCC2=O)cc1,"inconclusive [inhibitor, partial curve, poor fit]",–
CC(NC(=O)c1cccc(S(=O)(=O)N2CCN(Cc3ccccc3)CC2)c1)c1ccccc1Cl (configuration not stated),"inconclusive [inhibitor, single point]",–
O=C(CN1CCN(Cc2ccccc2)CC1)NC(=O)NC1CCCCC1,"inconclusive [inhibitor, single point]",–
COc1ccccc1/C=C/C(=O)NCC(=O)N/N=C/c1cc(Br)ccc1OC,"inconclusive [inhibitor, single point]",–
COc1ccc(CCC(=O)Nc2ccc(Cl)c(S(=O)(=O)N3CCCC3)c2)cc1,"inconclusive [inhibitor, partial curve]",–
Cc1cc(C(=O)N2CCN(c3ccccn3)CC2)c(C)o1,active: 12.6 µM,–
Cc1ccc(CSCC(=O)NCCCN2CCOCC2)cc1,"inconclusive [inhibitor, single point]",–
CC(C)c1ccccc1-n1c(SCC(=O)N2CCc3ccccc3C2)nc2ccccc2c1=O,active: 23.1 µM,–
CCCOc1ccccc1/C=C(\C#N)C(=O)Nc1cccc(C)n1,–,inactive: -14.5%
COc1ccc(CNC(=O)CN(c2ccc(C)cc2)S(=O)(=O)c2c(C)n[nH]c2C)cc1,"inconclusive [inhibitor, single point]",–
CCc1nc2ccccc2c(C(=O)OCC(=O)N(C)Cc2ccccc2)c1C,"inconclusive [inhibitor, partial curve]",–
COc1ccc2oc(=O)c(-c3csc(/C(C#N)=C/c4ccc(F)cc4)n3)cc2c1,–,inactive: -5.72%
CCOC(=O)Cn1nnc2c(sc3nc4c(c(-c5ccc(Cl)cc5)c32)CCC4)c1=O,active: 16.4 µM,–
COc1cccc(CNC(=O)CN2C(=O)N(c3cc(C)ccc3C)S(=O)(=O)c3ccccc32)c1OC,active: 23.1 µM,–
Cc1ccc(C(=O)NC(C)c2ccc(F)cc2)cc1 (configuration not stated),–,inactive: -15.1%
CC(CCC(C)[n+]1cccc(Br)c1)[n+]1cccc(Br)c1 (configuration not stated),"inconclusive [inhibitor, single point]",–
COCCNC(=O)CCn1c(=O)oc2ccccc21,–,inactive: -15%
COc1cc(C)c(Cl)cc1S(=O)(=O)NCCc1c(C)[nH]c2ccccc12,"inconclusive [inhibitor, single point]",–
O=c1onc2cnc3ccccc3n12,active: 13.3 µM,–
CCCc1nc2ccc(NC(C)=O)cc2c(=O)n1Cc1ccc(Cl)cc1,active: 23.1 µM,–
CCOc1ccc(C(=O)NCCC(=O)NCCCC(=O)O)cc1,–,inactive: -1.95%
CSc1ccc(CN2CCC(C)(Oc3cnc(Cl)c4ccccc34)C2)cc1 (configuration not stated),"inconclusive [inhibitor, single point]",–
COC(=O)C1=C(C)NC2=C(C(=O)CC(C)(C)C2)C1c1ccsc1 (configuration not stated),"inconclusive [inhibitor, single point]",–
Cc1ccc(/C=C(\C#N)C(=O)Nc2cc(C)ccc2C)cc1,"inconclusive [inhibitor, partial curve]",–

# Source: PubChem BioAssay AID686978 (National Center for Advancing Translational Sciences (NCATS), 2013)
